In publication PMC9911399, “Two distinct binding modes provide the RNA-binding protein RbFox with extraordinary sequence specificity”:
Residue numbers refer to the chain shown, from its start. The list shows a part of the results.

T1: RBFOX1 RRM (Homo sapiens, UniProt Q9NWB1 109-208)
T1 sequence: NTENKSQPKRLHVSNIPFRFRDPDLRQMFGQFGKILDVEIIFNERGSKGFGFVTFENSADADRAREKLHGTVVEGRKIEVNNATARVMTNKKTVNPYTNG

B1: GACGCAU (DNA:RNA)
RNA: GGGAGACCGGAAUUCAGAUUGUCCGACGCAUUUAAAUCCCGUCGUAGCCACCA
DNA 1: CAATCTGAATTCCGGTCTCCC
DNA 2: TGGTGGCTACGACGGGATT
B2: GACAAUC (DNA:RNA)
RNA: B1 RNA with G28A, C29A, A30U, U31C
DNA 1: CAATCTGAATTCCGGTCTCCC
DNA 2: TGGTGGCTACGACGGGATT
B3: AGAUUUG (DNA:RNA)
RNA: GGGAGACCGGAAUUCAGAUUGUCCAGAUUUGUUAAAUCCCGUCGUAGCCACCA
DNA 1: CAATCTGAATTCCGGTCTCCC
DNA 2: TGGTGGCTACGACGGGATT
B4: UUGUACG (DNA:RNA)
RNA: B3 RNA with A25U, G26U, A27G, U29A, U30C
DNA 1: CAATCTGAATTCCGGTCTCCC
DNA 2: TGGTGGCTACGACGGGATT
B5: AGAGUAG (DNA:RNA)
RNA: B3 RNA with U28G, U30A
DNA 1: CAATCTGAATTCCGGTCTCCC
DNA 2: TGGTGGCTACGACGGGATT
B6: AUAGAUU (DNA:RNA)
RNA: B3 RNA with G26U, U28G, U29A, G31U
DNA 1: CAATCTGAATTCCGGTCTCCC
DNA 2: TGGTGGCTACGACGGGATT
B7: GUCGAUA (DNA:RNA)
RNA: B1 RNA with A26U, C29A, A30U, U31A
DNA 1: CAATCTGAATTCCGGTCTCCC
DNA 2: TGGTGGCTACGACGGGATT
B8: CUACGAA (DNA:RNA)
RNA: B3 RNA with A25C, G26U, U28C, U29G, U30A, G31A
DNA 1: CAATCTGAATTCCGGTCTCCC
DNA 2: TGGTGGCTACGACGGGATT
B9: GCCAACA (DNA:RNA)
RNA: B1 RNA with A26C, G28A, C29A, A30C, U31A
DNA 1: CAATCTGAATTCCGGTCTCCC
DNA 2: TGGTGGCTACGACGGGATT
B10: GCGGAUU (DNA:RNA)
RNA: B1 RNA with A26C, C27G, C29A, A30U
DNA 1: CAATCTGAATTCCGGTCTCCC
DNA 2: TGGTGGCTACGACGGGATT
B11: GCACUAA (DNA:RNA)
RNA: B3 RNA with A25G, G26C, U28C, U30A, G31A
DNA 1: CAATCTGAATTCCGGTCTCCC
DNA 2: TGGTGGCTACGACGGGATT
B12: ACCCCUA (DNA:RNA)
RNA: B3 RNA with G26C, A27C, U28C, U29C, G31A
DNA 1: CAATCTGAATTCCGGTCTCCC
DNA 2: TGGTGGCTACGACGGGATT
B13: AAUCGGA (DNA:RNA)
RNA: B3 RNA with G26A, A27U, U28C, U29G, U30G, G31A
DNA 1: CAATCTGAATTCCGGTCTCCC
DNA 2: TGGTGGCTACGACGGGATT
B14: ACGUGCC (DNA:RNA)
RNA: B3 RNA with G26C, A27G, U29G, U30C, G31C
DNA 1: CAATCTGAATTCCGGTCTCCC
DNA 2: TGGTGGCTACGACGGGATT
B15: CUCAUAA (DNA:RNA)
RNA: B1 RNA with G25C, A26U, G28A, C29U, U31A
DNA 1: CAATCTGAATTCCGGTCTCCC
DNA 2: TGGTGGCTACGACGGGATT
B16: GAGGUUU (DNA:RNA)
RNA: B1 RNA with C27G, C29U, A30U
DNA 1: CAATCTGAATTCCGGTCTCCC
DNA 2: TGGTGGCTACGACGGGATT
B17: CGACCUC (DNA:RNA)
RNA: B3 RNA with A25C, U28C, U29C, G31C
DNA 1: CAATCTGAATTCCGGTCTCCC
DNA 2: TGGTGGCTACGACGGGATT
B18: CAAAUUG (DNA:RNA)
RNA: B3 RNA with A25C, G26A, U28A
DNA 1: CAATCTGAATTCCGGTCTCCC
DNA 2: TGGTGGCTACGACGGGATT
B19: GAAUACA (DNA:RNA)
RNA: B3 RNA with A25G, G26A, U29A, U30C, G31A
DNA 1: CAATCTGAATTCCGGTCTCCC
DNA 2: TGGTGGCTACGACGGGATT
B20: UAGUCAG (DNA:RNA)
RNA: B1 RNA with G25U, C27G, G28U, U31G
DNA 1: CAATCTGAATTCCGGTCTCCC
DNA 2: TGGTGGCTACGACGGGATT

Target: T1, RBFOX1 RRM
Assay: EMSA; HiTS-Eq, 1 nM pool, 10 min; buffer printed only for the single-RNA assays: 10 mM Tris pH 7.5, 150 mM NaCl, 3.4 mM EDTA, 0.001% NP-40, 30 C
Details: tags: His6 N-terminal (pET28a); label: 5' 32P
Procedure, shortened: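 Purified RbFox RRM, wild type or mutant, was incubated for 10 min in 50 µL with 1 nM of a 5′-radiolabelled RNA pool carrying 7 randomized nucleotides, whose flanks were annealed to DNA oligonucleotides, over a series of increasing protein concentrations. Unbound RNA was resolved on 8% native PAGE, cut out, reverse-transcribed, barcoded by PCR and sequenced on an Illumina HiSeq 2500. Relative association constants were derived from changes in read counts for each RNA species versus the control reaction and normalised to the cognate motif.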

**Q.** For B1, which binding signal is on record?
**A.** 0.0158 KA relative to UGCAUGU

**Q.** How did the binding signal turn out when B2 was run?
**A.** 0.00499 KA relative to UGCAUGU

**Q.** How did the binding signal turn out when B3 was run?
**A.** 0.0114 KA relative to UGCAUGU

**Q.** B4 was tested. Which binding signal did it give?
**A.** 0.0186 KA relative to UGCAUGU

**Q.** For B5, which binding signal is on record?
**A.** 0.0121 KA relative to UGCAUGU

**Q.** With B6 as the binder, how does the binding signal read?
**A.** 0.00434 KA relative to UGCAUGU

**Q.** How did the binding signal turn out when B7 was run?
**A.** 0.0091 KA relative to UGCAUGU

**Q.** Which binding signal does the source give for B8 here?
**A.** 0.00468 KA relative to UGCAUGU

**Q.** How did the binding signal turn out when B9 was run?
**A.** 0.00318 KA relative to UGCAUGU

**Q.** With B10 as the binder, how does the binding signal read?
**A.** 0.0163 KA relative to UGCAUGU

**Q.** Which binding signal does the source give for B11 here?
**A.** 0.00455 KA relative to UGCAUGU

**Q.** For B12, which binding signal is on record?
**A.** 0.00266 KA relative to UGCAUGU

**Q.** B13 was tested. Which binding signal did it give?
**A.** 0.00229 KA relative to UGCAUGU

**Q.** With B14 as the binder, how does the binding signal read?
**A.** 0.0141 KA relative to UGCAUGU

**Q.** How did the binding signal turn out when B15 was run?
**A.** 0.00126 KA relative to UGCAUGU

**Q.** For B16, which binding signal is on record?
**A.** 0.022 KA relative to UGCAUGU

**Q.** For B17, which binding signal is on record?
**A.** 0.0075 KA relative to UGCAUGU

**Q.** How did the binding signal turn out when B18 was run?
**A.** 0.00423 KA relative to UGCAUGU

**Q.** How did the binding signal turn out when B19 was run?
**A.** 0.00428 KA relative to UGCAUGU

**Q.** For B20, which binding signal is on record?
**A.** 0.0126 KA relative to UGCAUGU
